Test results reported in PubChem BioAssay AID504832 (National Center for Advancing Translational Sciences (NCATS), 2011).
The campaign covered roughly 310,000 compounds. About 18,000 (5.8%) were called active. Inconclusive means that the source gave no clear call. Such entries were picked first, then a sample of the others. The call rests on the fitted dose curve; in most records, active means well fitted inhibition curve with a large enough effect; inconclusive means small, poorly fitted or top-dose-only effect, or another doubt; inactive means no such curve, though single readings can be large or run the other way. No potency is given beside an inconclusive call; the fits are too rough.

Assay: Primary qHTS for delayed death inhibitors of the malarial parasite plastid, 48 hour incubation
Settings: P. falciparum luciferase growth in erythrocytes; series mostly up to 28.7 µM
Procedure, shortened: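 Cell-based growth assay: transgenic P. falciparum expressing firefly luciferase, cultured in red cells within RPMI 1640 containing 0.5% w/v Albumax, 24 mM bicarbonate and gentamycin. A drop in luciferase activity indicates inhibition.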
Potency means the concentration at half of the fitted maximal effect; tags describe the fitted curve by direction and shape.

SMILES	Potency
CCCCNC(=O)N1CCCN(c2ccc(C#N)cn2)CC1	inactive
CC(=O)Nc1ccc(NC(=O)c2c(C)noc2C)cc1	active: 4.65 µM
COc1ccccc1NC(=O)CSc1nnc(NC(=O)C2CCC2)s1	inactive
CN(C(=O)CN1C(=O)NC(C)(c2cccc(Br)c2)C1=O)C1CCCCC1 (centres undefined)	inconclusive [inhibitor, single point]
O=c1[nH]c(C2CCCN(S(=O)(=O)c3ccccc3F)C2)nc2c1nnn2Cc1ccccc1Cl (centres undefined)	inconclusive [inhibitor, partial curve]
O=C1NCCn2ccc(=O)cc21	inactive
CC(C)c1nc(NCCN2CCOCC2)c(C#N)c2c1COC(C)(C)C2	inconclusive [inhibitor, partial curve, poor fit]
CCn1c2ccccc2c2cc(/C=N/NC(=O)c3ccccc3)ccc21	inconclusive [inhibitor, partial curve, poor fit]
Cc1ccccc1N(CC(=O)Nc1ccc(S(=O)(=O)N2CCOCC2)cc1)S(C)(=O)=O	inconclusive [inhibitor, partial curve, poor fit]
Cc1cccc(N2C(=O)N3[C@H](c4ccc(F)cc4)[C@@H]4C(=O)N(C5CCCCC5)C(=O)[C@@H]4[C@]3(Cc3ccccc3)C2=O)c1	inconclusive [inhibitor, partial curve]
COc1ccccc1NC(=O)CSc1nnc(Cn2cnc3ccccc32)o1	inactive
O=C(CN1C(=O)NC2(CCCC2)C1=O)Nc1cc(Cl)ccc1N1CCCCC1	inconclusive [inhibitor, single point]
CCNc1nc(OC)nc(SCC(N)=O)n1	inactive
Cc1ccccc1CN1C[C@@H]2C[C@@H](c3ccc4nsnc4c3)N3CCC[C@@]23C1=O	inconclusive [inhibitor, full curve]
Cc1cnc(C(=O)O)cn1	inactive
COc1ccc(C2CC(c3c(-c4ccccc4)c4cc(Cl)ccc4[nH]c3=O)=NN2C(=O)CCC(=O)O)cc1 (centres undefined)	inconclusive [inhibitor, single point]
C#CCOCCOCCOCCNc1nc(N2CCN(C(=O)[C@H]([C@@H](C)CC)n3cc([C@@H](N)CO)nn3)CC2)nc(N2CCN(C(=O)[C@H]([C@@H](C)CC)n3cc([C@@H](N)CC(C)C)nn3)CC2)n1	inconclusive [inhibitor, single point]
O=C(Nc1ccc(S(=O)(=O)N2CCOCC2)cc1)c1ccc([N+](=O)[O-])s1	inconclusive [inhibitor, single point]
CCOC(=O)/C(C#N)=N/Nc1ccc(S(=O)(=O)N2CCc3ccccc32)cc1	active: 13.1 µM
CC(Sc1nnc(-c2cccnc2)n1-c1ccccc1)C(=O)NCc1ccc2c(c1)OCO2 (centres undefined)	inactive
CC1CCN(c2c(NCC3CCC(C(=O)NCCc4ccccc4)CC3)c(=O)c2=O)CC1 (centres undefined)	inactive
CC(NCC(=O)Nc1cc(S(=O)(=O)N2CCCCCC2)ccc1Cl)c1ccccc1 (centres undefined)	inconclusive [inhibitor, single point]
C#CCOCCOCCOCCNc1nc(N2CCN(C(=O)CCCCCCCCCCNC(=O)[C@H]([C@@H](C)CC)n3cc(CCCCN=C(N)N)nn3)CC2)nc(N2CCN(C(=O)CCCCCCCCCCNC(=O)[C@H](CCCCN)n3cc(C)nn3)CC2)n1	active: 3.7 µM

SMILES	Potency
CCOC(=O)C1=C(CNCc2ccccc2Cl)NC(=O)NC1c1ccc2c(c1)OCO2 (centres undefined)	inconclusive [inhibitor, partial curve, poor fit]
O=[N+]([O-])/C(=C\Nc1ccc(F)cc1F)S(=O)(=O)c1ccccc1	inactive
N#Cc1nc(Nc2cccc(Cl)c2)c2ncn(C3CCCC3)c2n1	inactive
O=C(CCc1ccccc1)N1C[C@H]2C[C@@H](C1)c1cccc(=O)n1C2	inactive
CC(NC(=O)c1c(O)c2ccccc2[nH]c1=O)c1ccccc1 (centres undefined)	inconclusive [inhibitor, single point]
CCCC1(c2ccccc2)NC(=O)N(CC(=O)Nc2cc(C)ccc2OC)C1=O (centres undefined)	inconclusive [inhibitor, full curve]
COc1ccc(-c2cccc(C3CC=CC4C3C(=O)N(Cc3ccccc3)C4c3ccc(C(F)(F)F)cc3)c2)cc1 (centres undefined)	active: 6.57 µM
O=C(CCc1ccccc1)Nc1ccnn1C1CCN(C/C=C/c2ccccc2)CC1	inactive
c1ccc(Nc2nc3ccccc3[nH]2)nc1	inconclusive [inhibitor, single point]
COc1ccccc1CNC(=O)CN1C(=O)NC(C)(c2ccc(C(C)(C)C)cc2)C1=O (centres undefined)	inconclusive [inhibitor, single point]
CC(C)c1ccccc1OCC(=O)Nc1nnc(C2CC2)s1	inactive
C=CCOc1ccc(CN(C)CC(O)COc2cccc3ccccc23)cc1 (centres undefined)	active: 10.4 µM
COCc1cc(C)nc(Nc2cc(C)ccc2C)c1C#N	inconclusive [inhibitor, single point]
CC(=O)Nc1ccc(NC(=O)c2ccccc2N(C)S(C)(=O)=O)cc1	inactive
Cc1nn(-c2ccccc2)c2c1P(=O)(O)/C(=C1\N(C)c3ccccc3C1(C)C)C=N2	active: 2.08 µM
CCN1C(=NCc2ccc(OC)cc2)N[C@@H](CCc2ccccc2)[C@H](C(=O)NCc2ccc(OC)cc2)[C@H]1C	inconclusive [inhibitor, partial curve, poor fit]
Cc1ccccc1-n1c(O)c(/C=N/N2CCOCC2)c(=O)[nH]c1=S	inconclusive [inhibitor, partial curve, poor fit]
COc1ccc(C)cc1NC(=O)C(C)N(c1ccc(C)cc1)S(C)(=O)=O (centres undefined)	inconclusive [inhibitor, partial curve]
Cc1cccc(OCC(=O)NC(=S)N2CCCc3ccccc32)c1	inconclusive [inhibitor, single point]
Cc1cc2[nH]c(=O)c(=O)[nH]c2cc1S(=O)(=O)N1CCN(c2ccccc2)CC1	inconclusive [inhibitor, partial curve]
CCn1c(SCc2nc3cc(OC)c(OC)cc3c(=O)[nH]2)nc2ccccc21	inactive
O=c1[nH]c2ccccc2c(O)c1O	active: 13.1 µM
CCNC(=S)N1CCN(c2ccc([N+](=O)[O-])cc2)CC1	active: 11.7 µM

SMILES	Potency
C=CCn1c(SCC(=O)C23CC4CC(CC(C4)C2)C3)nc(O)cc1=O	inconclusive [inhibitor, partial curve]
CN(C)c1nc(SCc2ccc(Cl)cc2)nc2c1CCCC2	inconclusive [inhibitor, single point]
NC(=O)CCN1CCN(CCOC2Cc3cc(Cl)ccc3Sc3ccccc32)CC1 (centres undefined)	inconclusive [inhibitor, single point]
CCOC(=O)c1sc(NC(=O)CSc2nnc(-c3ccco3)n2CC)c(C(=O)OCC)c1C	inconclusive [inhibitor, single point]
Cc1nc(COC(=O)c2ccc(S(=O)(=O)N3CCCC3)cc2)cs1	inconclusive [inhibitor, single point]
COc1ccc(Nc2nc3nonc3nc2N2CCCCC2)cc1	inconclusive [inhibitor, single point]
Nc1nc(-c2ccc3c(c2)CCO3)cs1	inactive
CCOc1cc(CNCc2cccnc2)ccc1OCC(=O)NC(C)(C)C	inactive
Cc1ccc2c(C)c(C(=O)N3CCN(c4cnccn4)CC3)oc2c1C	inconclusive [inhibitor, single point]
CC(c1ccon1)N(C)Cc1cn(Cc2ccccc2)nc1-c1ccc2c(c1)OCO2 (centres undefined)	inconclusive [inhibitor, partial curve, poor fit]
CC(C)(C)NC(=O)C(c1cccs1)N(CC1CCCO1)C(=O)Cn1nnc(-c2cccs2)n1 (centres undefined)	inconclusive [inhibitor, single point]
CCOC(=O)C1CCCCN1Cc1cccc(Oc2ccccc2)c1 (centres undefined)	inconclusive [inhibitor, partial curve]
Cc1[nH]c(=O)[nH]c(=O)c1CSCC(=O)OCC(=O)c1ccc(Br)cc1	inactive
COc1ccc(S(=O)(=O)CCc2nnc(NC(C)=O)s2)cc1	inactive
CCN1C(=O)/C(=C\N2CCCCCC2)SC1=S	inconclusive [inhibitor, partial curve]
COCCN(C(=O)COC(=O)C(c1ccccc1)c1ccccc1)c1c(N)n(Cc2ccccc2)c(=O)[nH]c1=O	active: 10.4 µM
Cc1cc(NC(=O)NN2CCOCC2)nn1-c1c(Cl)cc(Cl)cc1Cl	inconclusive [inhibitor, partial curve, poor fit]
O=C(Nc1ccc(CN2CCCCC2)cc1)c1c(F)c(F)c(F)c(F)c1F	inactive
O=C1NC(=O)C(c2cccs2)(c2cccs2)N1	inactive
Cc1c(C(=O)NCc2ccc3c(c2)OCO3)oc2ccc(S(=O)(=O)N3CCCCCC3)cc12	active: 13.1 µM
Cc1ccc(C2(C)NC(=O)N(CC(=O)Nc3cc(S(=O)(=O)N4CCCCC4)ccc3OC(C)C)C2=O)cc1 (centres undefined)	inconclusive [inhibitor, single point]
CCC1(C)Cc2nc(Cl)c(C#N)cc2CO1 (centres undefined)	inactive
Cc1ccc(NC(=O)COC(=O)c2cccc(OC(F)F)c2)cc1S(=O)(=O)N1CCCCC1	inconclusive [inhibitor, single point]
